# Laboratory results: the supplement of paper PMC8728848
# Some of the results follow.
# B1: PX14375l-pdi-526-25-526 (Parabacteroides distasonis) (protein)
# chain: DEEPKSTLTDVAYYKTQSQMESNVNYLYRTGAIGSYVDFGSAYIGPFASIQEELTGYFSNSYEGQEIVCRYTRELTRQQNTMQLASKMDKVWDDCYRGINVANGAIKHMPEVPMDQATADRLTAEAKFFRAFNYFYLVKTFGAVPFYTDPYELAENMELPRTETSTIYNQIESDLKDAMNVLPEATFAANGHRITKYVAAMTLTDVYMYQHKYAEAAETVRIVVNSNHKLTTNDDLAMNSAFNKLRSTDDLDEAIYAYEYDNQISPSNWLPTYAFDGDASSNGLFGTYAITQKVHGPNDRYLNIYESNDLRRQPNQFYHWTYTNPKTGKVWNSVGNAACCWYYYDEDALLTTGRGTKDWNVYRYAEALLDAAESIAQSTGVTAEAAGYLAQVKARANMEGKTAAEIASSLQSMGKQAFIEECWTERLRELPLEFKMWDMCVRTGMFPNISETTPGQVTYIPLVGAKNASGATIKESDLLWPLSVNEIQRNPSLTQNEGYSAK
# How the values were obtained:
# Assay in all cases: glycan array binding signal (z-score within array); higher = stronger binding
# Conditions in all cases: glycan notation: IUPAC condensed, linker removed
# [1] = target: Fuc(a1-2)Gal(b1-4)GlcNAc(b1-3)Gal(b1-4)GlcNAc(b1-3)Gal(b1-4)GlcNAc
# Outline: (§1)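 Negative Z-scores can be read as non-binding. The Z-score is calculated within each array and then averaged across arrays of one protein sequence at different concentrations or buffers and across linkers. Arrays, 3228 in all, were curated from the Consortium for Functional Glycomics database and kept only where the protein sequence was available.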
# [2] = target: Fuc(a1-2)Gal(b1-4)GlcNAc(b1-3)GalNAc
# Outline: as §1
# [3] = target: Fuc(a1-2)Gal(b1-4)GlcNAc(b1-3)[Fuc(a1-2)Gal(b1-4)GlcNAc(b1-6)]GalNAc
# Outline: as §1
# [4] = target: Fuc(a1-2)Gal(b1-4)GlcNAc(b1-3)[Fuc(a1-3)[Gal(b1-4)]GlcNAc(b1-6)]Gal(b1-4)Glc
# Outline: as §1
# [5] = target: Fuc(a1-2)Gal(b1-4)GlcNAc(b1-6)GalNAc
# Outline: as §1
# [6] = target: Fuc(a1-2)Gal(b1-4)GlcNAc6S
# Outline: as §1
# [7] = target: Fuc(a1-2)Gal(b1-4)[Fuc(a1-3)]GlcNAc
# Outline: as §1
# [8] = target: Fuc(a1-2)Gal(b1-4)[Fuc(a1-3)]GlcNAc(b1-2)Man(a1-3)[Fuc(a1-2)Gal(b1-4)[Fuc(a1-3)]GlcNAc(b1-2)Man(a1-6)]Man(b1-4)GlcNAc(b1-4)[Fuc(a1-6)]GlcNAc
# Outline: as §1
# [9] = target: Fuc(a1-2)Gal(b1-4)[Fuc(a1-3)]GlcNAc(b1-2)[Fuc(a1-2)Gal(b1-4)[Fuc(a1-3)]GlcNAc(b1-4)]Man(a1-3)[Fuc(a1-2)Gal(b1-4)[Fuc(a1-3)]GlcNAc(b1-2)Man(a1-6)]Man(b1-4)GlcNAc(b1-4)GlcNAc
# Outline: as §1
# [10] = target: Fuc(a1-2)Gal(b1-4)[Fuc(a1-3)]GlcNAc(b1-3)Gal(b1-4)[Fuc(a1-3)]GlcNAc
# Outline: as §1
# [11] = target: Fuc(a1-2)Gal(b1-4)[Fuc(a1-3)]GlcNAc(b1-3)Gal(b1-4)[Fuc(a1-3)]GlcNAc(b1-3)Gal(b1-4)[Fuc(a1-3)]GlcNAc
# Outline: as §1
# [12] = target: Fuc(a1-2)Gal(b1-4)[Fuc(a1-3)]GlcNAc(b1-3)GalNAc
# Outline: as §1
# [13] = target: Fuc(a1-2)Gal(b1-4)[Fuc(a1-3)]GlcNAc(b1-3)[Neu5Ac(a2-6)Gal(b1-4)GlcNAc(b1-6)]Gal(b1-4)Glc
# Outline: as §1
# [14] = target: Fuc(a1-2)Gal3S(b1-4)GlcNAc
# Outline: as §1
# [15] = target: Fuc(a1-2)Gal6S(b1-3)GlcNAc
# Outline: as §1
# [16] = target: Fuc(a1-2)Gal6S(b1-3)GlcNAc6S
# Outline: as §1
# Fuc(a1-2)Gal6S(b1-4)Glc = target: Fuc(a1-2)Gal6S(b1-4)Glc
# Outline: as §1
# [17] = target: Fuc(a1-2)Gal6S(b1-4)Glc6S
# Outline: as §1
# Fuc(a1-2)[Gal(a1-3)]Gal = target: Fuc(a1-2)[Gal(a1-3)]Gal
# Outline: as §1
# [18] = target: Fuc(a1-2)[Gal(a1-3)]Gal(b1-3)GalNAc
# Outline: as §1
# [19] = target: Fuc(a1-2)[Gal(a1-3)]Gal(b1-3)GalNAc(b1-3)Gal(a1-4)Gal(b1-4)Glc
# Outline: as §1
# [20] = target: Fuc(a1-2)[Gal(a1-3)]Gal(b1-3)GlcNAc
# Outline: as §1
# [21] = target: Fuc(a1-2)[Gal(a1-3)]Gal(b1-3)GlcNAc(b1-2)Man(a1-3)[Fuc(a1-2)[Gal(a1-3)]Gal(b1-3)GlcNAc(b1-2)Man(a1-6)]Man(b1-4)GlcNAc(b1-4)GlcNAc
# Outline: as §1
# [22] = target: Fuc(a1-2)[Gal(a1-3)]Gal(b1-3)GlcNAc(b1-2)Man(a1-3)[Fuc(a1-2)[Gal(a1-3)]Gal(b1-3)GlcNAc(b1-2)Man(a1-6)]Man(b1-4)GlcNAc(b1-4)[Fuc(a1-6)]GlcNAc
# Outline: as §1
# [23] = target: Fuc(a1-2)[Gal(a1-3)]Gal(b1-3)GlcNAc(b1-3)GalNAc
# Outline: as §1
# [24] = target: Fuc(a1-2)[Gal(a1-3)]Gal(b1-3)GlcNAc(b1-6)GalNAc
# Outline: as §1
# [25] = target: Fuc(a1-2)[Gal(a1-3)]Gal(b1-4)Glc
# Outline: as §1
# [26] = target: Fuc(a1-2)[Gal(a1-3)]Gal(b1-4)GlcNAc
# Outline: as §1
# [27] = target: Fuc(a1-2)[Gal(a1-3)]Gal(b1-4)GlcNAc(b1-2)Man
# Outline: as §1
# [28] = target: Fuc(a1-2)[Gal(a1-3)]Gal(b1-4)GlcNAc(b1-2)Man(a1-3)[Fuc(a1-2)[Gal(a1-3)]Gal(b1-4)GlcNAc(b1-2)Man(a1-6)]Man(b1-4)GlcNAc(b1-4)GlcNAc
# Outline: as §1
# [29] = target: Fuc(a1-2)[Gal(a1-3)]Gal(b1-4)GlcNAc(b1-2)Man(a1-3)[Fuc(a1-2)[Gal(a1-3)]Gal(b1-4)GlcNAc(b1-2)Man(a1-6)]Man(b1-4)GlcNAc(b1-4)[Fuc(a1-6)]GlcNAc
# Outline: as §1
# [30] = target: Fuc(a1-2)[Gal(a1-3)]Gal(b1-4)GlcNAc(b1-3)GalNAc
# Outline: as §1
# [31] = target: Fuc(a1-2)[Gal(a1-3)]Gal(b1-4)GlcNAc(b1-3)[Fuc(a1-2)[Gal(a1-3)]Gal(b1-4)GlcNAc(b1-6)]GalNAc
# Outline: as §1
# [32] = target: Fuc(a1-2)[Gal(a1-3)]Gal(b1-4)GlcNAc(b1-6)GalNAc
# Outline: as §1
# [33] = target: Fuc(a1-2)[Gal(a1-3)]Gal(b1-4)[Fuc(a1-3)]Glc
# Outline: as §1
# [34] = target: Fuc(a1-2)[Gal(a1-3)]Gal(b1-4)[Fuc(a1-3)]GlcNAc
# Outline: as §1
# [35] = target: Fuc(a1-2)[Gal(a1-3)]Gal(b1-4)[Fuc(a1-3)]GlcNAc(b1-3)GalNAc
# Outline: as §1
binder,measurement,setting,value
B1,glycan array binding signal (z-score),[1],-0.26
same,glycan array binding signal (z-score),[2],-0.2
same,glycan array binding signal (z-score),[3],-0.357
same,glycan array binding signal (z-score),[4],-0.057
same,glycan array binding signal (z-score),[5],-0.108
same,glycan array binding signal (z-score),[6],-0.195
same,glycan array binding signal (z-score),[7],-0.062
same,glycan array binding signal (z-score),[8],1.79
same,glycan array binding signal (z-score),[9],-0.201
same,glycan array binding signal (z-score),[10],0.041
same,glycan array binding signal (z-score),[11],-0.366
same,glycan array binding signal (z-score),[12],3.32
same,glycan array binding signal (z-score),[13],-0.335
same,glycan array binding signal (z-score),[14],-0.205
same,glycan array binding signal (z-score),[15],0.623
same,glycan array binding signal (z-score),[16],-0.031
same,glycan array binding signal (z-score),Fuc(a1-2)Gal6S(b1-4)Glc,-0.203
same,glycan array binding signal (z-score),[17],0.048
same,glycan array binding signal (z-score),Fuc(a1-2)[Gal(a1-3)]Gal,-0.19
same,glycan array binding signal (z-score),[18],-0.298
same,glycan array binding signal (z-score),[19],-0.21
same,glycan array binding signal (z-score),[20],-0.261
same,glycan array binding signal (z-score),[21],1.25
same,glycan array binding signal (z-score),[22],0.373
same,glycan array binding signal (z-score),[23],-0.223
same,glycan array binding signal (z-score),[24],-0.218
same,glycan array binding signal (z-score),[25],-0.368
same,glycan array binding signal (z-score),[26],0.049
same,glycan array binding signal (z-score),[27],0.352
same,glycan array binding signal (z-score),[28],0.036
same,glycan array binding signal (z-score),[29],-0.119
same,glycan array binding signal (z-score),[30],-0.08
same,glycan array binding signal (z-score),[31],-0.073
same,glycan array binding signal (z-score),[32],-0.095
same,glycan array binding signal (z-score),[33],-0.245
same,glycan array binding signal (z-score),[34],-0.204
same,glycan array binding signal (z-score),[35],-0.207
